Results: the supplement of paper PMC10369915
The other results are listed elsewhere or left out. No stated cut-off is given here; in the data, active = 3.2 or more and inactive = the rest. Only a few entries rise above the background.

Key:
Test in all cases: enrichment score (SH2-bound / input frequency) (ratio); bacterial display of known human phosphotyrosine sites (pTyr-Var adds point mutants) read by sequencing; higher = stronger binding; tyrosines were phosphorylated by kinases first
Settings in all cases: peptide library: pTyr-Var
SHP2 C-SH2 domain E139D = molecular target: SHP2 C-SH2 domain E139D
[1] = molecular target: SHP2 C-SH2 domain wild-type
SHP2 N-SH2 domain L43F = molecular target: SHP2 N-SH2 domain L43F
SHP2 N-SH2 domain T42A = molecular target: SHP2 N-SH2 domain T42A
SHP2 N-SH2 domain T52S = molecular target: SHP2 N-SH2 domain T52S
[2] = molecular target: SHP2 N-SH2 domain wild-type

Measured: enrichment score
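Further: displayed peptides selected on beads carrying the immobilized SH2 domain, with library peptides lacking any tyrosine serving as negative controls.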

LITTPYIGFLG [KCNQ1_Y267_L266P]
inactive: SHP2 C-SH2 domain E139D 1.29 | [1] 2.13 | SHP2 N-SH2 domain L43F 0.968 | SHP2 N-SH2 domain T42A 2.45 | SHP2 N-SH2 domain T52S 0.898 | [2] 1.47

LVTAWYIGFLC [KCNQ2_Y237]
inactive: SHP2 C-SH2 domain E139D 3.1 | [1] 3.17 | SHP2 N-SH2 domain L43F 2.01 | SHP2 N-SH2 domain T42A 2.03 | SHP2 N-SH2 domain T52S 2.46 | [2] 2.93

ESLRPYDVMDV [KCNQ2_Y562]
inactive: SHP2 C-SH2 domain E139D 0.724 | [1] 0.692 | SHP2 N-SH2 domain L43F 0.779 | SHP2 N-SH2 domain T42A 0.842 | SHP2 N-SH2 domain T52S 0.808 | [2] 0.873

ESLRSYDVMDV [KCNQ2_Y562_P561S]
inactive: SHP2 C-SH2 domain E139D 0.749 | [1] 0.89 | SHP2 N-SH2 domain L43F 0.885 | SHP2 N-SH2 domain T42A 0.731 | SHP2 N-SH2 domain T52S 0.796 | [2] 1.12

GKSFTYAAFHA [KCNT1_Y563]
inactive: SHP2 C-SH2 domain E139D 1.27 | [1] 0.97 | SHP2 N-SH2 domain L43F 1.07 | SHP2 N-SH2 domain T42A 1.17 | SHP2 N-SH2 domain T52S 1.08 | [2] 0.824

SAEEDYMADAK [KCNT1_Y876]
inactive: SHP2 C-SH2 domain E139D 0.587 | [1] 0.507 | SHP2 N-SH2 domain L43F 0.54 | SHP2 N-SH2 domain T42A 0.598 | SHP2 N-SH2 domain T52S 0.484 | [2] 0.481

KDFNKYVAYIE [KDM4B_Y31]
inactive: SHP2 C-SH2 domain E139D 0.889 | [1] 0.941 | SHP2 N-SH2 domain L43F 0.788 | SHP2 N-SH2 domain T42A 0.833 | SHP2 N-SH2 domain T52S 0.992 | [2] 0.985

KDFTKYVAFIE [KDM4B_Y31_N29T_YF]
inactive: SHP2 C-SH2 domain E139D 0.807 | [1] 1.08 | SHP2 N-SH2 domain L43F 0.879 | SHP2 N-SH2 domain T42A 0.889 | SHP2 N-SH2 domain T52S 0.905 | [2] 0.901

NKYVAYIESQG [KDM4B_Y34]
inactive: SHP2 C-SH2 domain E139D 1.04 | [1] 1.31 | SHP2 N-SH2 domain L43F 0.707 | SHP2 N-SH2 domain T42A 1.02 | SHP2 N-SH2 domain T52S 0.848 | [2] 0.929

LYSINYLHFGE [KDM4C_Y201]
active: SHP2 C-SH2 domain E139D 3.77 | [1] 5.59 | SHP2 N-SH2 domain L43F 4.57 | SHP2 N-SH2 domain T42A 7.36 | SHP2 N-SH2 domain T52S 4.97 | [2] 3.59

LFSINYLHFGE [KDM4C_Y201_YF]
active: SHP2 C-SH2 domain E139D 6.75 | [1] 6.36 | SHP2 N-SH2 domain L43F 6.1 | SHP2 N-SH2 domain T42A 7.37 | SHP2 N-SH2 domain T52S 6.86 | [2] 5.54

DPKFHYDNTAG [KDR_Y1214]
inactive: SHP2 C-SH2 domain E139D 0.574 | [1] 0.733 | SHP2 N-SH2 domain L43F 0.521 | SHP2 N-SH2 domain T42A 0.452 | SHP2 N-SH2 domain T52S 0.684 | [2] 0.707

DLKFHYDNTAG [KDR_Y1214_P1210L]
inactive: SHP2 C-SH2 domain E139D 1.11 | [1] 0.99 | SHP2 N-SH2 domain L43F 0.947 | SHP2 N-SH2 domain T42A 0.688 | SHP2 N-SH2 domain T52S 0.732 | [2] 0.822

VKFLGYPPPEI [KDR_Y357_A352V_YF]
inactive: SHP2 C-SH2 domain E139D 1.34 | [1] 1.3 | SHP2 N-SH2 domain L43F 0.997 | SHP2 N-SH2 domain T42A 1.1 | SHP2 N-SH2 domain T52S 1.13 | [2] 1.05

RQGKDYIGAIP [KDR_Y951_V952I]
inactive: SHP2 C-SH2 domain E139D 0.7 | [1] 0.919 | SHP2 N-SH2 domain L43F 1.22 | SHP2 N-SH2 domain T42A 0.554 | SHP2 N-SH2 domain T52S 0.665 | [2] 0.921

ADFFDYGRGLS [KHDRBS3_Y304_H306R_YF]
inactive: SHP2 C-SH2 domain E139D 0.903 | [1] 0.639 | SHP2 N-SH2 domain L43F 0.668 | SHP2 N-SH2 domain T42A 0.69 | SHP2 N-SH2 domain T52S 0.746 | [2] 0.795

FPRAWCRRSIA [KIAA1109_Y4272_Y4272C]
inactive: SHP2 C-SH2 domain E139D 0.249 | [1] 0.407 | SHP2 N-SH2 domain L43F 0.269 | SHP2 N-SH2 domain T42A 0.331 | SHP2 N-SH2 domain T52S 0.256 | [2] 0.322

TKEPKYEGAGS [KIAA1210_Y1615]
inactive: SHP2 C-SH2 domain E139D 0.436 | [1] 0.371 | SHP2 N-SH2 domain L43F 0.521 | SHP2 N-SH2 domain T42A 0.574 | SHP2 N-SH2 domain T52S 0.603 | [2] 0.502
